Measurements published in the supplement of paper PMC3334620.
The full ranking holds about 33,000 sequences; the median of “E-score (-0.5 to 0.5)” is about -0.054, and the highest 2% start at about 0.35. This is one part of the list.

What follows are sequences tested against T1, Stb5 (UniProt P38699) (assay: PBM E-score (8-mer binding enrichment) (E-score (-0.5 to 0.5)); higher = stronger / more preferred TF binding; most listed sequences are background and not binding sites). Conditions: protein concentration: 200 nM; construct: GST-full length.
T1 sequence: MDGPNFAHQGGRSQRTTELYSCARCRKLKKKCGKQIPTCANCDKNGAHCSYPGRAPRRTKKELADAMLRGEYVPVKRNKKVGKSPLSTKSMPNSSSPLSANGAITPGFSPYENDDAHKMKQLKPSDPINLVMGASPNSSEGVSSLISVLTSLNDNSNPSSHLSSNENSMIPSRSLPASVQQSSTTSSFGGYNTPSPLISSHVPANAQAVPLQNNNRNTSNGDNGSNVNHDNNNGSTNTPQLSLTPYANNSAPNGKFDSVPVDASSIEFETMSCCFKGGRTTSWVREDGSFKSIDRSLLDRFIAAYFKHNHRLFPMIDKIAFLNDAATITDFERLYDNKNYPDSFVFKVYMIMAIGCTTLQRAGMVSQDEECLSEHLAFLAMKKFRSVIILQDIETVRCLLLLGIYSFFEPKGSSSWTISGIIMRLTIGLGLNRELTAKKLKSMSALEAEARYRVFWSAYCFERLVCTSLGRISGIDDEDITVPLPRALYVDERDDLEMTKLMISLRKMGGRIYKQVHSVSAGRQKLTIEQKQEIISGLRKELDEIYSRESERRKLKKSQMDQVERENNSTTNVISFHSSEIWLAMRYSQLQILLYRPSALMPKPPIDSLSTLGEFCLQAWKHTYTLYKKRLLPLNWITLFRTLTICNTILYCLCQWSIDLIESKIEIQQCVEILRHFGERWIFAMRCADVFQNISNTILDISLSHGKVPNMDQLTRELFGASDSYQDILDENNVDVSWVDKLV
Method in brief: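 Detection of bound protein used fluorescent anti-GST, with scans normalised by masliner. The proteins were GST-tagged yeast transcription factors applied at about 100-200 nM to universal all-10-mer Agilent arrays made double-stranded by primer extension. Each ungapped eight-base word, pooled with its reverse complement, was scored with an E-score from the Universal PBM Analysis Suite.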

Row | Sequence | PBM E-score
1 | GACCCACA | 0.0704
2 | AGATGTTC | -0.0574
3 | ACAATTCG | -0.00889
4 | CGGCACAA | 0.256
5 | AAATCCGC | 0.354
6 | ATACGAAA | -0.0473
7 | CCGCCCGA | 0.307
8 | AAATCGAG | -0.148
9 | ACCAGGGG | -0.13
10 | GGTTTGTA | -0.0172
11 | ACTAATAC | 0.0638
12 | CCATGTAC | -0.197
13 | CGGCCTTC | 0.316
14 | CGCTGCAC | -0.0234
15 | GCCGTAAC | 0.282
16 | CTGTTAAA | 0.00799
17 | TGGAACAA | -0.3
18 | CTTCGCAC | 0.0158
19 | AGTTACGG | 0.187
20 | AATGCGCA | -0.122
21 | GTCTCATA | 0.051
22 | CAGACAGC | -0.156
23 | GTGCGTAA | -0.0375
24 | ACAAGAGC | -0.113
25 | ATGTATTG | 0.0133

Row | Sequence | PBM E-score
26 | AATTCCTG | -0.0811
27 | AACAATAC | -0.148
28 | ATTACAAA | -0.0401
29 | TCACCACA | 0.00819
30 | CAGGTATC | -0.102
31 | CATTTTTC | 0.0263
32 | AACCCAGC | -0.169
33 | GCGGACAC | 0.333
34 | GCCTATAA | 0.0249
35 | GCCTCAGA | -0.0989
36 | CGAACTCC | 0.209
37 | CAACCCCG | 0.371
38 | AATTGTCT | -0.238
39 | AGGGTTGG | -0.225
40 | CAATTTTA | -0.00732
41 | TACCGATA | 0.28
42 | GTAGGAAA | -0.184
43 | AGCTCCCG | -0.0713
44 | CATTCAAA | -0.0863
45 | ATATATAC | 0.173
46 | GCTCCGTA | 0.297
47 | ATGCAACA | -0.18
48 | CACAGTCG | -0.0701
49 | TATATCCA | 0.0192
50 | AACCAGGG | 0.00544

Row | Sequence | PBM E-score
51 | AGAATTTG | -0.092
52 | GTGTCAAC | -0.0914
53 | AAAGCTGG | -0.215
54 | ACATGGCA | -0.179
55 | ACATTGTG | -0.145
56 | AAACACGG | -0.0253
57 | ACGCGAAG | -0.0662
58 | AGAGGGGG | -0.303
59 | ATTAATTA | -0.0684
60 | AGGAGTGA | -0.206
61 | AAACTACC | 0.0696
62 | CGTTTCGA | 0.00109
63 | ACGTGGCC | -0.337
64 | CAACCCGA | 0.0843
65 | AACCTTGT | -0.244
66 | CGCTAGCG | 0.0896
67 | CAGGGGTA | -0.188
68 | ACCGTCAT | 0.324
69 | ACCACTAG | -0.135
70 | CCTCGACG | -0.0423
71 | CGGCCCAG | 0.113
72 | TCTTCCCA | -0.247
73 | GCGACAGC | 0.105
74 | AAGATGCT | -0.136
75 | AAGAATGA | -0.184

Row | Sequence | PBM E-score
76 | CCCGTCCG | 0.135
77 | ACTCCAGC | -0.283
78 | CCAATCCA | -0.0685
79 | GACTCCCC | -0.107
80 | GCGGCGTA | 0.316
81 | AACCCCAC | 0.0426
82 | AACCCCAT | 0.156
83 | CAAGCACG | -0.16
84 | GCAAACAA | -0.143
85 | AGTCAAAC | 0.0585
86 | GGCGTCCA | 0.063
87 | CAACGTTG | -0.0522
88 | AATTCGGA | 0.296
89 | CTCGTTAA | -0.0905
90 | ACGTTTAA | -0.129
91 | ATCTTTGC | -0.0121
92 | ACATAGGG | -0.112
93 | GCTTTACA | 0.0349
94 | GATAAACA | 0.0754
95 | CGGATCAG | -0.0313
96 | CAACATCG | 0.07
97 | ACGGGTAT | 0.256
98 | GGCAACTA | -0.101
99 | CCCAGAAG | 0.0619
100 | CAACCAGA | -0.147

Row | Sequence | PBM E-score
101 | AGCCTTGG | -0.32
102 | AACTAGTA | -0.103
103 | AGAATACT | -0.0839
104 | AAGTGTCC | 0.188
105 | AACGAGTT | -0.109
106 | CAACTAAA | -0.0835
107 | ATGTATGA | -0.249
108 | GCACTCTA | -0.0909
109 | CCCATTGA | -0.0435
110 | GCCATCAC | -0.0842
111 | CGAGGCTA | -0.0771
112 | CAAGTAAC | -0.163
113 | AACGAAAC | -0.129
114 | GGGCCCTA | -0.0134
115 | GGCGTCAC | 0.106
116 | AAACTTTG | -0.186
117 | AACATCTC | -0.0257
118 | GTAACCTA | 0.0501
119 | GCTCCAAC | -0.0725
120 | ACGATCAG | -0.272
121 | TGAAAGCA | -0.173
122 | CTGAGCCA | -0.051
123 | CAGGCGCC | 0.105
124 | GCCATAAC | -0.157
125 | AAGCGCAC | 0.105

Row | Sequence | PBM E-score
126 | CTTGATAC | -0.218
127 | GGACACCA | -0.0728
128 | GAGCACTC | -0.181
129 | ATGTTAAG | 0.113
130 | GGTCTGGA | -0.177
131 | ACGAGCTA | -0.188
132 | GAAATCCC | 0.254
133 | CCTAAAAC | 0.128
134 | CTTCCACA | -0.19
135 | AGGATTAC | -0.121
136 | ATCGCCAC | 0.101
137 | TACTCATA | -0.0803
138 | CGAATTAC | 0.0833
139 | GCCCGCTA | 0.233
140 | TGATGACA | -0.124
141 | TCCCGCGA | 0.264
142 | CGCCGTAG | 0.25
143 | CAAAACTC | 0.0797
144 | GGCGAACC | -0.0384
145 | ACTTATGC | 0.052
146 | GAGATATC | 0.0248
147 | CGATACAA | 0.0471
148 | AGAGAGCA | -0.0986
149 | ACCAATAC | 0.0152
150 | TTAACAAA | 0.0777

Row | Sequence | PBM E-score
151 | GCGTCGCA | 0.0422
152 | CACAAATA | -0.0347
153 | CCGCGCGG | 0.404
154 | CGGGTCCA | 0.225
155 | AGGGTGCG | -0.0498
156 | ACAATACA | -0.0326
157 | GACGCCGA | 0.342
158 | GCCGGGAC | 0.241
159 | CCACCAGC | -0.125
160 | AGGAGCGG | 0.321
161 | AAGGCCAC | -0.145
162 | GGAGGTAC | 0.118
163 | ATGCCACA | -0.266
164 | CCCCATTC | -0.143
165 | CGAGTTCC | -0.123
166 | TAATCATA | -0.0379
167 | GAAACTGC | -0.0793
168 | ATAGGGCA | -0.138
169 | CCATACCG | 0.202
170 | AACAGCAT | -0.086
171 | GACCGTCA | 0.121
172 | GCATGACC | -0.103
